Some of the results follow.
Tested on: HepG2
Experiment: cytotoxicity call (relative viability < 0.9)
Settings: 10 µM

**Q.** Which cytotoxicity call does the source give for `C[C@H]1CN([C@@H](C)CO)C(=O)c2cccc(NC(=O)c3nc4ccccc4s3)c2O[C@@H]1CN(C)C(=O)Nc1ccc(F)cc1` here?
**A.** The cytotoxicity call was “inactive”.

**Q.** `C[C@H](CO)N1C[C@H](C)[C@H](CN(C)C(=O)C2CCOCC2)Oc2ncc(C#CC3(O)CCCC3)cc2C1=O` was tested. Which cytotoxicity call did it give?
**A.** Its cytotoxicity call is “inactive”.

**Q.** How did the cytotoxicity call turn out when `Cc1noc(C)c1NC(=O)N(C)C[C@H]1OCCCC[C@H](C)Oc2ccc(NS(=O)(=O)c3ccc(Cl)cc3)cc2C(=O)N([C@@H](C)CO)C[C@@H]1C` was run?
**A.** Its cytotoxicity call is “inactive”.

**Q.** Which cytotoxicity call does the source give for `Cc1ccc(S(=O)(=O)N(C)C[C@H]2OCCCC[C@@H](C)Oc3ccc(NS(C)(=O)=O)cc3C(=O)N([C@H](C)CO)C[C@H]2C)cc1` here?
**A.** The cytotoxicity call was “inactive”.

**Q.** With `C[C@H]1CN([C@@H](C)CO)C(=O)c2cc(NC(=O)Nc3ccc(C(F)(F)F)cc3)ccc2O[C@@H]1CN(C)S(=O)(=O)c1ccc(Cl)cc1` as the molecule, how does the cytotoxicity call read?
**A.** Its cytotoxicity call is “active”.

**Q.** `COc1ccc(S(=O)(=O)Nc2ccc3c(c2)C(=O)N([C@@H](C)CO)C[C@H](C)[C@H](CN(C)C(=O)c2ccccc2)OCCCC[C@H](C)O3)cc1` was tested. Which cytotoxicity call did it give?
**A.** The cytotoxicity call was “inactive”.

**Q.** How did the cytotoxicity call turn out when `Cc1noc(C)c1NC(=O)N(C)C[C@@H]1OCCCC[C@@H](C)Oc2ccc(NS(=O)(=O)c3ccccc3)cc2C(=O)N([C@@H](C)CO)C[C@H]1C` was run?
**A.** The cytotoxicity call was “inactive”.

**Q.** `C[C@@H]1CN([C@@H](C)CO)S(=O)(=O)c2ccc(C#CC3(O)CCCC3)cc2O[C@H]1CN(C)C(=O)c1ccccc1` was tested. Which cytotoxicity call did it give?
**A.** The cytotoxicity call was “inactive”.

**Q.** Which cytotoxicity call does the source give for `O=C(C[C@@H]1CC[C@H]2[C@@H](COC[C@H](O)CN2S(=O)(=O)c2cccc(Cl)c2)O1)NCc1ccncn1` here?
**A.** The cytotoxicity call was “inactive”.

**Q.** `CC(C(=O)O)c1ccc2c(c1)[nH]c1ccc(Cl)cc12` (configuration not stated) was tested. Which cytotoxicity call did it give?
**A.** The cytotoxicity call was “inactive”.

**Q.** How did the cytotoxicity call turn out when `COc1ccc(S(=O)(=O)N(C)C[C@H]2Oc3ccc(NS(=O)(=O)c4ccc(C)cc4)cc3CC(=O)N([C@H](C)CO)C[C@@H]2C)cc1` was run?
**A.** The cytotoxicity call was “inactive”.

**Q.** For `C[C@@H]1CN([C@@H](C)CO)C(=O)Cc2cc(NS(=O)(=O)c3cn(C)cn3)ccc2O[C@H]1CN(C)C(=O)Nc1ccc2c(c1)OCO2`, which cytotoxicity call is on record?
**A.** The cytotoxicity call was “inactive”.

**Q.** For `C[C@H](CO)N1C[C@H](C)[C@@H](CN(C)C(=O)c2ccccc2)OCCCC[C@H](C)Oc2ccc(NC(=O)Nc3ccc(F)cc3)cc2C1=O`, which cytotoxicity call is on record?
**A.** The cytotoxicity call was “inactive”.

**Q.** `CCN(CC)CCOC(=O)C1(C2CCCCC2)CCCCC1.Cl` was tested. Which cytotoxicity call did it give?
**A.** Its cytotoxicity call is “inactive”.

**Q.** Which cytotoxicity call does the source give for `CO[C@H]1C[C@H](O[C@H]2[C@H](C)[C@@H](O[C@H]3O[C@H](C)C[C@H](N(C)C)[C@H]3O)[C@@H](C)C[C@]3(CO3)C(=O)[C@H](C)[C@@H](O)[C@@H](C)[C@@H](C)OC(=O)[C@@H]2C)O[C@@H](C)[C@@H]1O` here?
**A.** The cytotoxicity call was “inactive”.

**Q.** Which cytotoxicity call does the source give for `COc1ccc(S(=O)(=O)Nc2ccc3c(c2)C(=O)N([C@H](C)CO)C[C@H](C)[C@@H](CN(C)S(=O)(=O)c2cn(C)cn2)OCCCC[C@@H](C)O3)cc1` here?
**A.** The cytotoxicity call was “inactive”.

**Q.** With `Cc1noc(C)c1NC(=O)N(C)C[C@@H]1Oc2ccc(NS(=O)(=O)c3ccccc3)cc2C(=O)N([C@H](C)CO)C[C@@H]1C` as the molecule, how does the cytotoxicity call read?
**A.** The cytotoxicity call was “inactive”.

**Q.** With `NCc1cnco1` as the molecule, how does the cytotoxicity call read?
**A.** The cytotoxicity call was “inactive”.

**Q.** For `C[C@H](CO)N1C[C@H](C)[C@H](CN(C)Cc2ccncc2)Oc2ccc(NC(=O)Nc3cccc4ccccc34)cc2CC1=O`, which cytotoxicity call is on record?
**A.** Its cytotoxicity call is “active”.

**Q.** How did the cytotoxicity call turn out when `C[C@H](CO)N1C[C@H](C)[C@@H](CN(C)S(=O)(=O)c2ccc(F)cc2)OCCCC[C@H](C)Oc2ccc(NC(=O)Cc3ccccc3)cc2C1=O` was run?
**A.** The cytotoxicity call was “inactive”.

**Q.** With `COc1ccc([C@H]2C/C=C\C[C@@H](c3cccc(Cl)c3)NC(=O)[C@H](c3ccccc3)CC(=O)N2)c(OC)c1` as the molecule, how does the cytotoxicity call read?
**A.** The cytotoxicity call was “inactive”.

**Q.** For `CO[C@@H]1CN(C)C(=O)c2cc(NS(C)(=O)=O)ccc2OC[C@@H](C)N(C(=O)CN(C)C)C[C@@H]1C`, which cytotoxicity call is on record?
**A.** The cytotoxicity call was “inactive”.
